# Laboratory results as given in PubChem BioAssay AID504832 (National Center for Advancing Translational Sciences (NCATS), 2011).
# About 18,000 (5.8%) of roughly 310,000 compounds were called active. The shares of active, inactive and inconclusive entries below differ from those in the screen. Calls come from the whole dose curve; as a rule, active = well fitted inhibition curve with a large enough effect; inconclusive = small, poorly fitted or top-dose-only effect, or another doubt; inactive = no such curve, though single readings can be large or run the other way. Potencies of inconclusive entries are left out as doubtful fits.
# Assay: Primary qHTS for delayed death inhibitors of the malarial parasite plastid, 48 hour incubation
# Conditions: P. falciparum luciferase growth in erythrocytes; series mostly up to 28.7 µM
# Procedure, shortened: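 Firefly luciferase activity from engineered P. falciparum reports growth; inhibitors lower the luminescent signal. Cultures contained 2% hematocrit erythrocytes at 0.1% final parasitemia.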
# Potency is the fitted concentration of half-maximal effect; tags give direction and shape of the fitted curve.
row,Compound,Potency
1,CCCCOCCCNc1ncnc2c1[nH]c1ccccc12,active: 7.38 µM
2,CC(=O)N1CCc2cc(S(=O)(=O)NCC(=O)NCc3ccc(F)cc3)ccc21,"inconclusive [inhibitor, single point]"
3,CCc1nnc(NS(=O)(=O)c2ccc(NC(=O)c3ccc(C#N)cc3)cc2)s1,"inconclusive [inhibitor, full curve, poor fit]"
4,CCCCN(CC)C(=O)CSc1cc(=O)n(C)c2ccccc12,"inconclusive [inhibitor, single point]"
5,NC(=O)CC(NC(=O)Cc1cccc2ccccc12)c1ccc(NCc2cc(F)ccc2F)c([N+](=O)[O-])c1 (configuration not stated),"inconclusive [inhibitor, partial curve]"
6,COc1ccc(C(=O)OC(C)CN2CCOCC2)cc1OC (configuration not stated),inactive
7,Cc1oc(-c2ccc(Cl)cc2)nc1CN1CCC(C(=O)NCCCN2CCOCC2)CC1,"inconclusive [inhibitor, partial curve, poor fit]"
8,O=C(c1ccccc1F)N1CCN(c2ccc([N+](=O)[O-])c(NCC3CCCO3)c2)CC1 (configuration not stated),"inconclusive [inhibitor, single point]"
9,Cc1ccc(-c2c(C(=O)N/N=C/c3cccnc3)nnn2-c2nonc2N)cc1,"inconclusive [inhibitor, partial curve]"
10,O=C(CCCCCNc1nc(=S)[nH]c2ccccc12)N1CCN(c2ccccn2)CC1,"inconclusive [inhibitor, partial curve]"
11,O=C(Nc1ccc(-c2nnn(CC(=O)N3CCN(C(=O)c4ccco4)CC3)n2)cc1)c1ccccc1F,inactive
12,COc1ccccc1CN1C[C@@H]2C[C@@H](c3ccc4nsnc4c3)N3CCC[C@@]23C1=O,"inconclusive [inhibitor, partial curve, poor fit]"
13,CCOc1ccc2[nH]c(=O)c(CN(CCO)C(=O)c3ccc(Br)cc3)cc2c1,"inconclusive [inhibitor, partial curve, poor fit]"
14,COCCNC(=O)c1ccc2c(=O)n(CCCN3CCCC3=O)c(=S)[nH]c2c1,"inconclusive [inhibitor, partial curve, poor fit]"
15,O=C(Nc1ccc(S(=O)(=O)NC2=NCCCCC2)cc1)c1cc(F)c(F)cc1Cl,"inconclusive [inhibitor, single point]"
16,O=C(c1ccc(-c2cccc(C(F)(F)F)c2)o1)N1CCCCCCC1,inactive
17,COc1cc(/C=N/NC(=O)c2cc(C)oc2C)ccc1OCc1ccccc1,"inconclusive [inhibitor, partial curve]"
